The list shows a part of the results.
Columns and labels:
[1] = molecular target: Neu5Gc(a2-8)Neu5Gc(a2-6)Gal(b1-4)GlcNAc; experiment: glycan array binding signal (z-score within array); higher = stronger binding; conditions: glycan notation: IUPAC condensed, linker removed
Outline: (§1)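 Glycan array data came from 3228 arrays in the Consortium for Functional Glycomics database, and only arrays with an available protein sequence were kept. Glycan names were put into IUPAC-condensed notation, and columns mapping to the same glycan were averaged. The binding signal is a within-array Z-score, averaged across arrays of one protein sequence run at different concentrations or buffers and across linkers. A negative Z-score can be read as non-binding.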

[2] = molecular target: Neu5Gc(b2-6)Gal(b1-4)GlcNAc; experiment: as above; conditions: glycan notation: IUPAC condensed, linker removed
Outline: as §1

B1: PX14367A-bth-493-35-493 (Bacteroides thetaiotaomicron) (protein)
chain: VSSDQVAVAGNAERLFNGAWYNLFEYGTTYANIGYRALQCQDDMMASDVVSRPKYGFNSSYQFNDVAIPSDGRTSFAWYLIYKTIDNCNTAISIKGDSEELRQAQGQALALRAFCYLHLVQHYQFTYLKDKDAPCVPIYTEPTTSGTKPKGKSTVAQVYQQIFDDLNLAQDYLTNYVRKGDGQKFKPNTDVVNGLMARAYLLTGQWGEAAKAAEAARKGYSLMTTTAEYEGFNNISNKEWIWGSPQTLSQSDASYNFYYLDATYVGAYSSFMADPHLMDTFVKGDIRLPLFQWMREGYLGYKKFHMRSDDTADLVLMRSAEMYLIEAEAKVRDGVALDQAVAPLNTLRTARGVGNYDVTGKTKEQVIDEILMERRRELWGEGFGITDVLRNQKAVERMALSEDMQKTEVDCWQEGGSFAKRNPLGHWFLNFPDGKAFSANSSYYLYAIPEKEINANPNL
glycan array binding signal (z-score) [1]: -0.286
glycan array binding signal (z-score) [2]: -0.512

From the supplement of paper PMC8728848
